PubChem BioAssay AID1508623 (National Center for Advancing Translational Sciences (NCATS), 2021)
The campaign covered roughly 48,000 compounds. About 450 (0.94%) were called active. About 19% were inconclusive and are not listed. Calls follow the shape of the dose curve; as a rule, active = well fitted inhibition curve with a large enough effect; inconclusive = small, poorly fitted or top-dose-only effect; inactive = no such curve, though single readings can be large or run the other way. Some of the results follow.

Assay: Primary qHTS for Identification of Small Molecule Inhibitors of Huntingtin Promoter Activity; also: nearly all actives have a fitted effect of over 50% in size
Settings: HEK293 HTT promoter firefly luciferase reporter (activity 0% = vehicle and -100% = no light), 24 h; series mostly up to 57.5 µM; activity change, negative = inhibition: at the top concentration
Outline: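 HEK293 Fluc reporter, 2,500 cells/well, 24 h pre-culture; cpds up to 57.5 uM final, 24 h 37 degrees C; Dual-Glo, 10 min RT; normalized vehicle = 0%, zero RLU = -100%.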

Activity change, negative = inhibition, inactive:
O=C(c1ccc2c(c1)N(Cc1ccccc1F)C(=O)c1ccccc1S2(=O)=O)N1CCCCCC1 -24.2%
CCCNC(=O)c1cc2n(n1)CCCN(Cc1ccc(F)cc1)C2=O -16.9%
C[C@@H]1CN(CCCn2c3ccccc3c3ccccc32)C[C@H](C)N1 -21.6%
COc1cccc(C(=O)c2sc(Nc3ccc(C)cc3C)c(S(=O)(=O)c3ccccc3)c2N)c1 -23.9%
CCOc1ccc(CCNC(=O)c2ccc(Cn3c(=O)c4cccn4c4cccnc43)cc2)cc1 -25.5%
CC(C)=CCOc1ccc(/C=C/C(=O)c2ccc(OCC=C(C)C)cc2OCC(=O)O)cc1 2.52%
CCOC(=O)c1sc(N2C(=O)c3oc4ccc(F)cc4c(=O)c3C2c2cccc(OC)c2)nc1C (stereo unspecified) 7.79%
CCN(C(=O)Cn1c(SCc2ccccc2F)nc2cccnc21)c1ccccc1 3.59%
O=C(OCc1ccccc1)c1ccc(-c2nnn(Cc3ccccc3F)n2)cc1 16.4%
O=C(CSCc1nc2cccnc2n1C1CCCCC1)NCc1cccc(Br)c1 -15.1%
CCOc1ccc(CCNC(=O)c2ccc3[nH]c(C)c(C)c3c2)cc1 -20.8%
Cc1ccc2scc(N3CCN(c4ccccc4)CC3)c(=O)c2c1 -6.02%
O=C(C1COc2ccccc2O1)N(Cc1cccnc1)c1nc2ccc(F)cc2s1 (stereo unspecified) 49.9%
O=C(Cn1c(=O)oc2ccccc21)NCc1ccccc1Cl 59.4%
CCOc1ccc2ncc3c(-c4ccccc4)nn(CC(=O)Nc4cccc(F)c4)c3c2c1 10.2%
COc1ccc(-n2c(-c3ccc(F)cc3)cn3c4c(=O)n(C)c(=O)n(C)c4nc23)cc1 56.2%
COc1ccccc1CNC(=O)Cn1c(=O)oc2ccccc21 14.9%
O=C(CSc1nc2c(c(=O)[nH]1)CCCC2)Nc1cccc(O)c1 0.912%
CCCn1cc(S(=O)(=O)c2cccc(Cl)c2)c(=O)c2cc(F)c(N3CCN(CC)CC3)cc21 -20.8%
COc1cc2[nH]c(=O)n(CCCC(=O)NCc3ccccc3Cl)c(=O)c2cc1OC -7.56%
COC(=O)c1ccccc1NC(=O)CSc1nc2sc3c(c2c(=O)[nH]1)CCCC3 -10.8%
O=C1OC(c2ccc(O)cc2)(c2ccc(O)cc2)c2ccccc21 -7.21%
COCCCNC(=O)Cn1c(=O)n(-c2cccc(C)c2)c(=O)c2c3c(sc21)CN(C(C)=O)CC3 1.06%
CON=C(C(=O)N[C@@H]1C(=O)N2C(C(=O)O)=C(CSC(=O)c3ccco3)CS[C@H]12)c1csc(N)n1 -16.9%
CCCCn1c(CCNC(=O)c2ccc(F)cc2)nc2ccccc21 -15.8%
COc1ccccc1CNc1nc(-c2ccco2)nn1C(=O)c1ccccc1[N+](=O)[O-] 31.5%
